{
  "source": "PubChem BioAssay AID686970",
  "about": "(National Center for Advancing Translational Sciences (NCATS), 2013)",
  "note": "Out of some 360,000 compounds screened, about 6,000 (1.7%) were called active. Inconclusive means that the source gave no clear call. Such entries were picked first, then a sample of the others. The call rests on the fitted dose curve; in most records, active means well fitted cell-killing curve with a large enough effect; inconclusive means small, poorly fitted or top-dose-only effect, or effect the other way; inactive means flat fitted curve, though single readings scatter. No potency is given beside an inconclusive call; the fits are too rough. Potency means the concentration at half of the fitted maximal effect; tags describe the fitted curve by direction and shape.",
  "data": [
    {"assay": "qHTS for induction of synthetic lethality in tumor cells producing 2HG: qHTS for the HT-1080-NT fibrosarcoma cell line;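 further: NT is the 2HG producing partner of a matched IDH1 knockdown line; nearly all actives have a fitted effect of over 55% in size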;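 on activity, negative = less viability: 0% = DMSO-treated cells and -100% = media-only wells without cells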", "settings": "HT-1080-NT fibrosarcoma viability, CellTiter-Glo ATP luminescence, 48 h; activity, negative = less viability: at 46.1 µM (top of the series) unless noted", "method_in_brief": "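Viability of the 2HG-overproducing fibrosarcoma line after 48 hours of compound exposure at 37 degrees C was determined by luminescence with CellTiter-Glo, and concentration-effect curves were then fitted and categorized.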", "values": [
      {"smiles": "O=S1(=O)N[C@H](Cc2ccccc2)COc2cccc(N3CCN(Cc4ccccc4F)CC3)c21", "Potency": "inconclusive [cytotoxic, single point]"},
      {"smiles": "COCC1CCCCN1C(=O)c1cc(COc2ccc(C)c(C)c2)on1", "note": "(configuration not stated)", "activity, negative = less viability": "inactive: -2.08%"},
      {"smiles": "Cc1noc(C)c1C(=O)Nc1ccc(F)cc1", "activity, negative = less viability": "inactive: 17.9%"},
      {"smiles": "O=C(NCC1CCCO1)c1onc(CSc2cccc3ccccc23)c1C(=O)O", "note": "(configuration not stated)", "activity, negative = less viability": "inactive: -2.95%"},
      {"smiles": "CC(C)(C)c1ccc(C(=O)Nc2nnc(Cc3c[nH]c4ccccc34)s2)cc1", "activity, negative = less viability": "inconclusive: -17.9% [cytotoxic]"},
      {"smiles": "Cc1cc(C)cc(NC(=S)NCc2cccn2C)c1", "Potency": "inconclusive [cytotoxic, single point]"},
      {"smiles": "O=C1NC(=O)/C(=C\\c2ccc(OCc3cccc([N+](=O)[O-])c3)cc2)N1", "activity, negative = less viability": "inactive: 0.288%"},
      {"smiles": "Cc1nc(Nc2ccccc2)c2oc3ccc(Cl)cc3c2n1", "Potency": "inconclusive [cytotoxic, single point]"},
      {"smiles": "CC(=O)OCCn1c(=O)c2cc3c(=O)n(CCOC(C)=O)c(=O)c3cc2c1=O", "Potency": "inconclusive [rising, partial curve]"},
      {"smiles": "Cc1cc(NC(=O)COC(=O)c2ccccc2S(=O)(=O)N(C)c2ccccc2)no1", "activity, negative = less viability": "inactive: -23.7%"},
      {"smiles": "COc1ccccc1N1C(=O)N(C(C)=O)C2C1Nc1ccccc1N2C", "note": "(configuration not stated)", "Potency": "active: 15.8 µM"},
      {"smiles": "Cc1c2ccccc2nc2c(F)c(NCCO)c(F)c(F)c12", "activity, negative = less viability": "inactive: -6.47%"},
      {"smiles": "O/N=C/c1cc(Br)cc(Br)c1OCc1ccccc1", "Potency": "inconclusive [cytotoxic, single point]"},
      {"smiles": "O=C1C(Cl)=C(Oc2ccccc2)C(=O)c2ccccc21", "Potency": "active: 4.11 µM"},
      {"smiles": "COc1cc(S(=O)(=O)Nc2ccccc2N2CCCCC2)ccc1NC(C)=O", "Potency": "active: 16.4 µM"},
      {"smiles": "NS(=O)(=O)c1ccc(NC(=S)N2CCC(Cc3ccccc3)CC2)cc1", "activity, negative = less viability": "inactive: -9.85%"},
      {"smiles": "Cc1cc2c(SCC(=O)NC3CCCCC3)ncnc2s1", "activity, negative = less viability": "inactive: 18.1%"},
      {"smiles": "COc1cccc(-c2cn3nc(C)c(C)nc3n2)c1", "Potency": "inconclusive [cytotoxic, single point]"},
      {"smiles": "COc1ccc(CN(C(=O)c2nsc(Cl)c2Cl)C(C(=O)NC2CCCCC2)c2ccc(OC)cc2)cc1", "note": "(configuration not stated)", "Potency": "inconclusive [cytotoxic, partial curve]"},
      {"smiles": "CC(CCc1ccccc1)NC(=O)COC(=O)c1ccc(S(C)(=O)=O)c([N+](=O)[O-])c1", "note": "(configuration not stated)", "Potency": "active: 16.4 µM"},
      {"smiles": "O=C(N/N=C/c1cc2c3c(c1O)CCCN3CCC2)c1ccccc1O", "Potency": "inconclusive [cytotoxic, partial curve, poor fit]"},
      {"smiles": "CCCc1cc(C(=O)Nc2ccccc2SC)no1", "Potency": "inconclusive [rising, partial curve]"},
      {"smiles": "COc1cc(CNC(C)c2ccccc2)cc(Br)c1OCc1ccc(F)cc1", "note": "(configuration not stated)", "Potency": "inconclusive [cytotoxic, single point]"},
      {"smiles": "CC(CNC(=O)CC[C@H]1O[C@@H](n2ccc(=O)[nH]c2=O)[C@H](O)[C@@H]1O)c1ccccc1", "note": "(some centres not stated)", "activity, negative = less viability": "inactive: 14.6%"},
      {"smiles": "CC(C)(C)CN1CCN(Cc2nc(-c3ccc(F)cc3)cs2)CC1CCO", "note": "(configuration not stated)", "Potency": "inconclusive [cytotoxic, single point]"},
      {"smiles": "O=C(c1ccco1)N1CCN(C(=O)c2ccco2)C1=S", "Potency": "inconclusive [cytotoxic, single point]"},
      {"smiles": "CN(Cc1cnccn1)C(=O)C1CCC(=O)N(CCc2ccc(Cl)cc2)C1", "note": "(configuration not stated)", "activity, negative = less viability": "inactive: 12.2%"},
      {"smiles": "COC(=O)C[C@@H]1C=C[C@H](NC(=O)c2ccccc2)[C@@H](CO)O1", "Potency": "inconclusive [rising, single point]"},
      {"smiles": "CCC1(c2ccc(Cl)cc2)NC(=O)N(Cc2ccc(C(=O)OC)cc2)C1=O", "note": "(configuration not stated)", "Potency": "inconclusive [cytotoxic, partial curve]"},
      {"smiles": "Cc1ccc(C)c(OCC(O)CN2CCc3ccccc3C2)c1C", "note": "(configuration not stated)", "Potency": "inconclusive [cytotoxic, single point]"},
      {"smiles": "Cc1cc(C)cc(OCc2nc3ncc(Br)cc3[nH]2)c1", "Potency": "inconclusive [cytotoxic, full curve]"},
      {"smiles": "COc1ccc(C2=NCC(CSc3nnnn3C)S2)cc1", "note": "(configuration not stated)", "Potency": "inconclusive [cytotoxic, single point]"},
      {"smiles": "COc1ccc2[nH]cc(CCNS(=O)(=O)c3ccc(C)cc3)c2c1", "activity, negative = less viability": "inactive: -13.9%"},
      {"smiles": "COc1ccccc1N1CCN(c2ccc(-c3ccccc3)nn2)CC1", "Potency": "active: 2.59 µM"},
      {"smiles": "CC(C)(C)c1ccc(/C=C2/SC(N3CCCC3)=NC2=O)cc1", "Potency": "active: 16.4 µM"},
      {"smiles": "Cc1ccc(Cn2c(=N)n(CC(O)c3ccco3)c3ccccc32)cc1", "note": "(configuration not stated)", "Potency": "inconclusive [cytotoxic, single point]"},
      {"smiles": "Cc1ccc(C)c(N2CCN(C(=O)c3cccn4c(=O)c5sccc5nc34)CC2)c1", "Potency": "active: 13 µM"},
      {"smiles": "O=C(Nc1ccc(F)cc1F)Nc1csc2ccccc12", "Potency": "inconclusive [cytotoxic, single point]"},
      {"smiles": "Cc1ccc2nc(CSc3nc(C)ccc3C#N)[nH]c2c1", "Potency": "active: 17.8 µM"},
      {"smiles": "CC(O)CN1C(=O)C(CC(=O)Nc2ccc(Cl)cc2)SC1=Nc1ccccc1", "note": "(configuration not stated)", "Potency": "inconclusive [cytotoxic, single point]"},
      {"smiles": "COc1ccc(-c2nc3ccc(Br)cn3c2Cc2ccccc2)cc1OC", "Potency": "inconclusive [cytotoxic, single point]"},
      {"smiles": "CC1(C(=O)NCCC#N)CCN1C(=O)c1ccccc1CCc1ccccc1", "note": "(configuration not stated)", "Potency": "inconclusive [rising, single point]"},
      {"smiles": "O=C(CN1C(=O)NC2(CCOc3ccccc32)C1=O)NCc1ccccc1", "note": "(configuration not stated)", "activity, negative = less viability": "inactive: -0.473%"},
      {"smiles": "COc1cc(/C=C/c2ccc3cccc(O)c3n2)cc(Cl)c1OC", "Potency": "inconclusive [cytotoxic, full curve]"},
      {"smiles": "Cc1onc(-c2ccccc2)c1C(=O)Oc1ccccc1", "activity, negative = less viability": "inconclusive: 8.22%"},
      {"smiles": "Cc1ccc(NC(=O)c2cc3ccccc3cc2O)cc1", "Potency": "inconclusive [cytotoxic, single point]"},
      {"smiles": "COc1ccc(/C=N/NC(=O)c2c(C)n(C)c3ccc(OC)cc23)c(OC)c1", "activity, negative = less viability": "inactive: 22.5%"},
      {"smiles": "Cc1ccc(S(=O)(=O)Nc2ccc(F)cc2)cc1C(=O)N1CCOCC1", "activity, negative = less viability": "inactive: 5.01%"},
      {"smiles": "Cc1ccc(/C(N)=N/OC(=O)c2cccc(Cn3cc(C(F)(F)F)ccc3=O)c2)cc1", "Potency": "inconclusive [cytotoxic, single point]"},
      {"smiles": "Cc1nc(NC(=O)COC(=O)CCc2ccccc2)c(Cl)cc1Cl", "activity, negative = less viability": "inactive: 11.4%"},
      {"smiles": "CN(C)CCN1C(=O)c2cccc3cc([N+](=O)[O-])cc(c23)C1=O", "Potency": "active: 10.3 µM"},
      {"smiles": "CN1CCN(C(=O)c2cc3c(c(-c4cccc(C#CC(C)(C)O)c4)n2)[C@H](CCO)N(S(=O)C(C)(C)C)C3)CC1", "note": "(some centres not stated)", "activity, negative = less viability": "inactive: 27.6%"},
      {"smiles": "CCN(CC)S(=O)(=O)c1cc(NC(=O)CSCc2c(C)noc2C)ccc1C", "activity, negative = less viability": "inactive: -3.95%"},
      {"smiles": "COc1ccc(/C=N/NC(=O)CCn2c3ccccc3c3ccccc32)cc1OC", "activity, negative = less viability": "inactive: -19.7%"},
      {"smiles": "CCN(Cc1ccccc1)S(=O)(=O)c1ccc(C(=O)N(CCCN(C)C)c2nc3cc(C)cc(C)c3s2)cc1", "Potency": "active: 16.4 µM"},
      {"smiles": "O=C(NC1CCCCC1)C1CCCN(S(=O)(=O)c2cnc[nH]2)C1", "note": "(configuration not stated)", "activity, negative = less viability": "inconclusive: -3.23% [cytotoxic]"},
      {"smiles": "CCOC(=O)C(C)Sc1nnc(-c2ccccc2O)n1-c1ccc(C)cc1", "note": "(configuration not stated)", "activity, negative = less viability": "inactive: -2.3%"},
      {"smiles": "CCN(CC)C(=O)CSc1nnc(COc2ccc(OC)cc2)n1N", "activity, negative = less viability": "inactive: 11.8%"},
      {"smiles": "Cc1cccc(OCc2nnc(SCC(=O)N3c4ccccc4CC3C)n2C)c1C", "note": "(configuration not stated)", "Potency": "inconclusive [cytotoxic, single point]"},
      {"smiles": "Cc1ccc(-c2cc(NC=O)c3ncc(-c4cccc(C(=O)N(C)C)c4)n3c2)cc1", "Potency": "inconclusive [cytotoxic, partial curve, poor fit]"},
      {"smiles": "C=CCN(CC=C)Cc1c(C)[nH]c2ccc(C(=O)OCC)cc2c1=O", "activity, negative = less viability": "inactive: 4.08%"},
      {"smiles": "Cc1cc(C)nc(SCc2ccc(C(=O)N/N=C/c3cccc(O)c3O)cc2)n1", "Potency": "inconclusive [cytotoxic, full curve]"},
      {"smiles": "CCOC(=O)C(=NCCCN(C)C)NNc1ccc(Br)cc1", "Potency": "inconclusive [cytotoxic, single point]"},
      {"smiles": "O=C(NNC(=O)c1cccs1)c1ccccn1", "Potency": "inconclusive [cytotoxic, single point]"},
      {"smiles": "NC(N)=NN=C(c1ccc(F)cc1)c1ccc(C(F)(F)F)cc1", "Potency": "active: 2.91 µM"},
      {"smiles": "CCOC(=O)c1c(C)nsc1NC(=O)C1CCCCC1", "activity, negative = less viability": "inactive: -0.0106%"},
      {"smiles": "CCCN1CCC(=O)NC1=S", "activity, negative = less viability": "inactive: 2.79%"},
      {"smiles": "C=CCn1c(SCc2c(C)noc2C)nc2cc(C(=O)O)ccc2c1=O", "Potency": "active: 6.31 µM"},
      {"smiles": "CC(C)(CO)NCc1ccc(Br)cc1", "activity, negative = less viability": "inactive: 2.96%"},
      {"smiles": "C[C@H](c1ccccc1)N1C[C@H](COCc2ccccc2)Oc2cc(N3CC[C@H](O)C3)ccc2S1(=O)=O", "Potency": "inconclusive [cytotoxic, single point]"},
      {"smiles": "CC(=O)Nc1ccc(/C(C)=N/Nc2nc(Nc3ccccc3)nc(N3CCOCC3)n2)cc1", "Potency": "inconclusive [cytotoxic, partial curve]"},
      {"smiles": "CCCc1nnc(NC(=O)c2nc(S(=O)(=O)Cc3cccc(C)c3)ncc2Cl)s1", "Potency": "inconclusive [cytotoxic, single point]"},
      {"smiles": "COc1ccccc1/C=C/C(=O)c1cc(Br)ccc1OC(=O)c1ccco1", "Potency": "active: 18.4 µM"},
      {"smiles": "COC(=O)c1ccc(N=C2S/C(=C\\c3cc(C)n(-c4cccnc4)c3C)C(=O)N2C)cc1", "activity, negative = less viability": "inactive: -6.12%"},
      {"smiles": "CCOC(=O)C(C)/C(C)=N/NC(=O)c1cc2ccccc2cc1O", "note": "(configuration not stated)", "Potency": "inconclusive [cytotoxic, partial curve]"},
      {"smiles": "COCCNC(=O)c1onc(CSc2ccccc2)c1C(=O)NCCOC", "activity, negative = less viability": "inactive: 7.41%"},
      {"smiles": "Oc1ccc(/C=N/NC(=S)N2CCOCC2)cc1", "Potency": "inconclusive [cytotoxic, partial curve]"}
    ]}
  ]
}
